# Experimental data as given in PubChem BioAssay AID2546 (National Center for Advancing Translational Sciences (NCATS), 2010).
# Hit rate of the full screen: of about 310,000 compounds, about 11,000 (3.5%) were called active. This list was built around the results that the source calls inconclusive (neither active nor inactive); the mix of calls is not that of the screen. Calls come from the whole dose curve; as a rule, active = well fitted inhibition curve with a large enough effect; inconclusive = small, poorly fitted or top-dose-only effect, or effect the other way; inactive = flat fitted curve, though single readings scatter. Potencies of inconclusive entries are left out as doubtful fits.
# Assay: VP16 counterscreen qHTS for inhibitors of ROR gamma transcriptional activity;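 note: Gal4-VP16 expression switched on by copper sulfate through the metallothionein promoter; nearly all actives have a fitted effect of over 50% in size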
# Details: Drosophila S2 Gal4-VP16 UAS-luciferase, luminescence, 20 h; series mostly up to 53.6 µM
# Potency is the fitted concentration of half-maximal effect; tags give direction and shape of the fitted curve.
row,Structure (SMILES),Potency
1,COc1ccc(NC(=S)N/N=C2\CC(C)(C)Oc3ccc(OC)cc32)cc1,active: 2 µM
2,CCOc1ccc(CC(=O)Nc2c3c(nn2C(C)(C)C)CS(=O)(=O)C3)cc1,inactive
3,O=C(Nc1cccc(C(=O)N2CCOCC2)c1)c1ccccc1Cl,inactive
4,COc1ccc(C(=O)/C(C#N)=N/Nc2ccc([N+](=O)[O-])cc2)cc1,active: 3.55 µM
5,CCNc1nc2c(c(=O)n(C)c(=O)n2C)n1Cc1ccc(Cl)cc1,active: 4.47 µM
6,Cc1cccc(NC(=O)c2ccc([N+](=O)[O-])o2)n1,"inconclusive [inhibitor, single point]"
7,Cc1cc([N+](=O)[O-])nn1CC(=O)NNC(=S)Nc1ccc(Cl)cc1,"inconclusive [inhibitor, single point]"
8,CC(=O)C1C(c2ccccc2)c2c(noc2C)CC1(C)O (centres undefined),"inconclusive [inhibitor, partial curve, poor fit]"
9,O=C(Nc1ccc(N2CCOCC2)c(Cl)c1)c1ccc2c(c1)OCCO2,"inconclusive [inhibitor, full curve, poor fit]"
10,S=c1[nH]c(-c2ccccc2)cn1-c1ccccc1,active: 10 µM
11,Cc1ccc(Cl)c(N/C=C/C(=O)c2ccccc2)c1,"inconclusive [inhibitor, single point]"
12,Cn1nnnc1SCCNCc1cc(Cl)ccc1OCc1ccccc1,"inconclusive [inhibitor, single point]"
13,CCSc1nsc(NC(=O)Nc2cccc(C(C)=O)c2)n1,"inconclusive [inhibitor, single point]"
14,Cn1cc(C(=O)c2ccc(Cl)cc2Cl)cc1C(=O)N/N=C(\N)COc1ccccc1,active: 1.58 µM
15,NS(=O)(=O)c1ccc(CCNC(=O)CCCCCNc2nc(=S)[nH]c3ccccc23)cc1,"inconclusive [activator, full curve, poor fit]"
16,Cc1ccc(C(=O)c2cc([N+](=O)[O-])ccc2N2CCCCC2)cc1C,inactive
17,COc1cc2cc(C(c3nnnn3C3CCCC3)N3CCCCC3)c(=O)[nH]c2cc1OC (centres undefined),inactive
18,C/C(=N/NC(=O)c1ccco1)c1ccc(Br)s1,"inconclusive [inhibitor, single point]"
19,CCc1ccc(Nc2n[n+](-c3ccccc3)c(-c3c(Cl)cccc3Cl)s2)cc1,"inconclusive [inhibitor, single point]"
20,Cc1ccc(S(=O)(=O)N(Cc2ccccc2)Cc2ccco2)cc1,"inconclusive [inhibitor, single point]"
21,Cc1cccc(/C(N)=N/OC(=O)c2ccncc2)c1,"inconclusive [inhibitor, single point]"
22,CCc1ccccc1NC(=S)N1N=CCC1c1ccccc1 (centres undefined),active: 7.94 µM
23,Cc1cccc(-n2c(SCC(N)=O)nc3c(c2=O)C2(CCCC2)Cc2ccccc2-3)c1,inactive
24,O=C(N/N=C/c1cccc(O)c1)c1ccc2c(c1)OCCO2,active: 6.31 µM
25,COc1ccccc1NC(=O)Nc1nc2ccc(S(N)(=O)=O)cc2s1,inactive

row,Structure (SMILES),Potency
1,Cc1cc(C)c2c(CN3CCN(Cc4ccc5c(c4)OCO5)CC3)cc(=O)oc2c1,inactive
2,CCc1nnc(NC(=O)CSc2nnc(COc3cccc(C)c3)o2)s1,"inconclusive [inhibitor, single point]"
3,Cc1ccc(-n2ncc(Br)c(Br)c2=O)cc1,active: 2.82 µM
4,CCCCCn1c(NC(=O)c2ccco2)c(S(=O)(=O)c2ccc(C)cc2)c2nc3ccccc3nc21,inactive
5,COc1ccc(-n2c(=O)c(-c3cc(F)cc(F)c3)nc3cnc(N4CCNCC4)nc32)cc1,"inconclusive [inhibitor, single point]"
6,Cc1ccc(S(=O)(=O)N2CCN(C(C)C(=O)N3CCCc4ccccc43)CC2)cc1 (centres undefined),"inconclusive [inhibitor, single point]"
7,CN1CCCN(C(c2ccccc2)c2ccc(Cl)cc2)CC1 (centres undefined),inactive
8,CC1=Nc2ccccc2/C1=C/c1sc(=N)n(-c2nccs2)c1O,active: 0.794 µM
9,Cc1ccc(C(=O)C(C(=O)/C=C/c2ccccc2)=C2SCCCS2)cc1,active: 14.1 µM
10,CCOC(=O)[C@H](CCc1ccccc1)N[C@@H](C)C(=O)N1C(=O)N(C)C[C@H]1C(=O)O,inactive
11,CC1(C)Cc2[nH]c(=S)c(C#N)cc2CO1,"inconclusive [inhibitor, single point]"
12,O=C(Nc1nc(-c2cccs2)cs1)c1ccco1,"inconclusive [activator, full curve]"
13,COc1cccc(N2CCN(C(=O)CC(C)(C)CC3=NS(=O)(=O)c4ccccc4N3)CC2)c1,"inconclusive [inhibitor, single point]"
14,COc1ccc(S(=O)(=O)N(C)c2nc3ccccc3n3c(CC(C)C)nnc23)cc1,inactive
15,O=C(Cc1ccccc1)N1CCC(c2nc(-c3ccc(F)cc3)no2)CC1,"inconclusive [inhibitor, single point]"
16,COc1cc2c(cc1OC)C(c1ccc(SC)cc1)CC(=O)N2 (centres undefined),inactive
17,Cn1c(N)c(C(=O)CCl)c(=O)n(Cc2ccccc2)c1=O,"inconclusive [inhibitor, single point]"
18,C=CCNC(=O)c1onc(CSc2ccccc2F)c1C(=O)O,"inconclusive [inhibitor, single point]"
19,COc1ccc(Oc2ncc3nc(-c4ccc(Cl)cc4)c(=O)n(C)c3n2)cc1,inactive
20,CC(=O)c1c(C)[nH]c(-c2ccccc2)nc1=S,"inconclusive [inhibitor, partial curve]"
21,O=c1c2c([nH]c3ccc(Br)cc13)CCCC2,"inconclusive [inhibitor, single point]"
22,O=C(CCS(=O)(=O)c1ccc(F)cc1)Nc1nc(-c2ccncc2)cs1,inactive
23,COc1ccc(C(=O)N/N=C/c2ccc(OC(=O)c3cccc4ccccc34)c([N+](=O)[O-])c2)cc1,"inconclusive [inhibitor, single point]"
24,CCN1CCN(C(c2ccc(C(F)(F)F)cc2)c2ccc3cccnc3c2O)CC1 (centres undefined),active: 1.26 µM
25,CCNC(=S)N(CCc1c(C)[nH]c2ccc(C)cc12)Cc1cc(OC)c(OC)c(OC)c1,inactive

row,Structure (SMILES),Potency
1,CCN1CNC(=S)N(c2ccccc2C)C1,inactive
2,Cc1nc2ccc(S(=O)(=O)N(C)CC(=O)N3CCc4ccccc4C3)cc2s1,"inconclusive [inhibitor, full curve, poor fit]"
3,CN(C)c1ccc(/C=N\NC(=O)c2ccc(Cn3cc(Cl)cn3)cc2)cc1,"inconclusive [inhibitor, single point]"
4,Cc1c(/C(O)=C2/C(=O)C(=O)N(CCN3CCOCC3)C2c2ccccn2)cnn1-c1ccccc1 (centres undefined),"inconclusive [inhibitor, partial curve]"
5,CCOC(=O)c1ccc(NC(=O)c2nc[nH]c2C(=O)NCCCCCNC(=O)OC(C)(C)C)cc1,"inconclusive [inhibitor, single point]"
6,COc1ccc(NC(=S)Nc2ccc(C)c(S(=O)(=O)N3CCCCC3)c2)cc1,"inconclusive [inhibitor, single point]"
7,O=C(NC(=S)NCc1ccccc1)c1cccs1,active: 7.94 µM
8,CN1C(=O)c2cccc3c(S(=O)(=O)Nc4ccccc4F)ccc1c23,inactive
9,CCCCN(C)S(=O)(=O)c1cc(Br)cc2c1N(C(=O)C1CC1)CC2,"inconclusive [inhibitor, single point]"
10,Cc1ccc(C(=O)Nc2ncc3c(Cl)cccc3n2)cc1,active: 3.98 µM
11,CCOc1ccc(NC(=S)NC(C)CCc2ccccc2)cc1 (centres undefined),active: 7.08 µM
12,CC(=O)NCC(=O)N1CCCC(C(=O)c2ccc(Oc3ccccc3)cc2)C1 (centres undefined),inactive
13,CCCCOC(=O)Oc1ccc2c(=O)c(Oc3cc(C)cc(C)c3)coc2c1,"inconclusive [activator, single point]"
14,Cc1ccc(-n2nc3c(N4CCC(C(=O)NCCc5cccs5)CC4)nnc(C)c3c2C)cc1,"inconclusive [inhibitor, single point]"
15,c1ccc(Oc2cc(-c3ccccc3)ncn2)cc1,"inconclusive [inhibitor, single point]"
16,COCCCNC(=S)N/N=C/c1ccc2c(c1)OCO2,"inconclusive [inhibitor, single point]"
17,COc1ccc(NC(=S)NC2CC3CCC2C3)c(OC)c1 (centres undefined),active: 11.2 µM
18,Cc1ccc(N=Nc2ccc3ccccc3c2O)cc1,"inconclusive [inhibitor, single point]"
19,Fc1ccc(CNC(=S)NC2CCCCC2)cc1,active: 11.2 µM
20,CN1CCN(CCCNC(=O)Nc2ccc([N+](=O)[O-])cc2)CC1,inactive
21,CCCn1nc2cc(C(=O)NCCc3cccs3)ccc2c1OCC,"inconclusive [activator, partial curve]"
22,C=CCOc1ccc(CNCCO)cc1OCC,"inconclusive [activator, single point]"
23,CC1=CC2=NC(=O)/C(=C\c3cccn3CCOc3cc(C)cc(C)c3)C(=N)N2O1,"inconclusive [inhibitor, single point]"
24,CC(=O)O[C@@H]1[C@@]2(C)O[C@H]2CC[C@]23O[C@H]2[C@H](OC3=O)C2=C(C)C(=O)O[C@@]21O,"inconclusive [inhibitor, single point]"
